Reference: PubChem BioAssay AID588855 (National Center for Advancing Translational Sciences (NCATS), 2011)
Hit rate of the full screen: of about 410,000 compounds, about 5,000 (1.2%) were called active. Inconclusive means that the source gave no clear call. Such entries were picked first, then a sample of the others. Calls come from the whole dose curve; as a rule, active = well fitted inhibition curve with a large enough effect; inconclusive = small, poorly fitted or top-dose-only effect; inactive = no such curve, though single readings can be large or run the other way. Where the call is inconclusive, the potency comes from a doubtful curve fit.

Test: qHTS for Inhibitors of TGF-b; note: nearly all actives have a fitted effect of over 65% in size
Settings: HepG2 CAGA-GFP TGF-b/SMAD3 reporter, GFP fluorescence, 18 h, TGF-beta stimulated, 500 pg/mL final; series mostly up to 46.1 µM; activity, negative = inhibition: at the top concentration
Method in brief: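 Read-out: total well GFP (ex488/em500-530) summed from mean per-cell fluorescence. Cells: HEPG2 CAGA-GFP, 1% FBS DMEM, 18 h at 37 degrees C with 500 pg/mL final TGF-beta. Unstimulated wells served as the full-inhibition control; stimulated DMSO wells = 0%.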
% is set by controls: 0 for no effect and ±100 for the full control effect; potency is the fitted concentration of half-maximal effect; tags give direction and shape of the fitted curve.

Compound | activity, negative = inhibition | Potency
CCC(=O)N1CCc2cc(S(=O)(=O)CCC(=O)NCCC3=CCCCC3)ccc21 | inactive: 1.19% | 
O=C(COc1ccccc1Cl)NCc1ccco1 | inactive: -1.91% | 
Cc1cc(OCC(O)CN(C)C(=O)C(C)Oc2ccccc2)ccc1Cl (stereo unspecified) |  | inconclusive: 11.2 µM [inhibitor, single point]
CC(=O)Nc1ccc(NC(=O)CSc2nccn2Cc2ccc3c(c2)OCO3)cc1 |  | inconclusive: 22.4 µM [inhibitor, single point]
COc1ccccc1C(CCN(Cc1ccccc1)C(C)=O)c1ccco1 (stereo unspecified) | inactive: -16.5% | 
COc1cc2c(cc1OC)C(=O)CCC2 |  | inconclusive: 17.8 µM [inhibitor, single point]
COc1cccc(C(=O)Nc2nc3ccc(S(=O)(=O)N4CCCC4)cc3s2)c1 |  | inconclusive: 15.8 µM [inhibitor, single point]
CCn1c(SCc2nc3ccccc3s2)nc2cc(S(=O)(=O)N3CCOCC3)ccc21 | inactive: -0.403% | 
CC/C(=N\Nc1nncc2ccccc12)c1ccc(F)cc1 |  | inconclusive: 15.8 µM [inhibitor, single point]
COc1ccc(CCNC(=O)CN(Cc2ccc(Cl)cc2)S(C)(=O)=O)cc1 | inactive: -5.72% | 
CCN(CC)CCN1C(=O)C(=O)/C(=C(/O)c2ccc3c(c2)CC(C)O3)C1c1ccc(OC)cc1 (stereo unspecified) | inactive: 3.29% | 
C[C@H]1COC[C@@H](C/C=C/c2ccccc2)N1c1ccccc1 | inactive: 11% | 
O=c1cc(N2CCN(c3ccccc3Cl)CC2)[nH]c(=O)n1Cc1ccc(F)cc1 | inactive: 0.494% | 
Fc1c(F)c(C(F)(F)F)c(F)c(F)c1N/N=C\c1cccs1 |  | inconclusive: 25.1 µM [inhibitor, single point]
Cc1ccc(-n2nc3c(N4CCC(C(=O)NCc5ccc(C)o5)CC4)nnc(C)c3c2C)cc1 |  | inconclusive: 15.8 µM [inhibitor, single point]
CCSc1nnc(NC(=O)CSc2nc3c(cc2C#N)CCCC3)s1 |  | inconclusive: 0.501 µM [inhibitor, full curve, poor fit]
CC(C)N(C(=O)[C@H]1C[C@H](CC(=O)NCCCn2ccnc2)C(=O)N2CCc3c([nH]c4ccc(Cl)cc34)[C@]12C)C(C)C |  | inconclusive: 7.08 µM [inhibitor, partial curve]
Cc1ccc(CN2CCC2(C)C(=O)NC(C)C)cc1 (stereo unspecified) | inactive: 1.43% | 
CN1CCC(=C2c3ccccc3CCc3sccc32)CC1 | inactive: -10.7% | 
COc1ccc(NC(=O)CSCC(=O)N(C)Cc2ccc(Cl)c(Cl)c2)cc1 |  | inconclusive: 17.8 µM [inhibitor, single point]
COc1ccc(/C=N/NC(=O)c2[nH]ncc2Br)c(OC)c1 | inactive: 1.55% | 
